Assay results reported in publication PMC12136788.
The list shows a part of the results.

T1: UNK ZnF1-3 (human, UniProt Q9C0B0 31-174)
T1 sequence: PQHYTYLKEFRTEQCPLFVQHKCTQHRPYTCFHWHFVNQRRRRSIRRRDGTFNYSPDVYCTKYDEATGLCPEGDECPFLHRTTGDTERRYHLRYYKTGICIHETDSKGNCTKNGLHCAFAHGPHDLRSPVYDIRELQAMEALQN

B1: chr13:6597965:6597966:-_ENSMUSG00000021196_ENSMUST00000144053|mus_mus|motif|central (ssRNA)
RNA: GGGAGUUCUACAGUCCGACGAUCUCAUUCUCUCAUAUUACCACUGGCUCAAAUCCUCCAAUGAUCAGAAGGGCAUUGAUACGGUGGGAAUGCAUCUGCUCUGCGAUCUUCUCCAAGUACUUUCCAGGUAGGGUGCGUUUUGUCCAACAGAGGAUUGAGCAUCA
B2: chr3:150289932:150289933:+_ENSG00000144895_ENST00000460851|hu_hu|hu_hu_hu_mus_False|8_8 (ssRNA)
RNA: GGGAGUUCUACAGUCCGACGAUCCUUGUAGUUUUUAACAUCCCAUACUUCCAUUUGUCCUCGAAGAUUUCCAAAUCCAGCCAGCACUAAUAUAUGUCCAUGAGGGCUAUAGAAGGCUGCGUUGCGAGGACCAGUUCCAAAGUCCAACAGAGGAUUGAGCAUCA
B3: chr11:23189859:23189860:+_ENSMUSG00000020290_ENSMUST00000020538|mus_mus|FALSE|FALSE (ssRNA)
RNA: GGGAGUUCUACAGUCCGACGAUCUUGAGGUAUUUCAGCUGUUAUAUGUCCACCUAAUUUGUUGACAAUAAUGGCCAUAGUACUAAGCACUUCUGGUUCUCUAGCAGCUGGUACAUUUCUCUGGUAAUCAAUAAGAACUGCAUCCAACAGAGGAUUGAGCAUCA
B4: chr17:45757422:45757423:+_ENSG00000108424_ENST00000290158|hu_mus|motif|central (ssRNA)
RNA: GGGAGUUCUACAGUCCGACGAUCUACAUCCUUCCCGAAGGCUGUACACAAGUCCCCUAUCAGACCAGCAGCACAGGCGGCCACUCCGUCCGUAUGAUCCUCAUCUCCAGCAAUGUGAUCAAUAAAAGACAAAAUAAAUUCUACCAACAGAGGAUUGAGCAUCA
B5: chr2:60072956:60072957:+_ENSMUSG00000026977_ENSMUST00000102748|mus_mus|motif|central (ssRNA)
RNA: GGGAGUUCUACAGUCCGACGAUCUGCACUUUUAGCUUUAUCAUUUUUCCCAUCAGUUGAAUUCCAACCAGAAGGAAUAAUAUCGGCAGUAAUCAUGACAUUGUCAGCCAGAUUACUGCCGAGUGCUGGUGGGACUGCAAACCGCAACAGAGGAUUGAGCAUCA
B6: chr3:179287964:179287965:+_ENSG00000136518_ENST00000429709|hu_hu|hu_hu_hu_mus_True|38_48 (ssRNA)
RNA: GGGAGUUCUACAGUCCGACGAUCCUUGAGUGGUGAGAUGGCCUCCAUGUUCUCCCUGGGCACGCGGAGGGCAUUGGUGUCUAUGUAGUAGGUGGGACCGCCUUGUUUGCCUUUGUCACCAUCAAUCUCCAUCAUUGUACUUCCCAACAGAGGAUUGAGCAUCA
B7: chr3:10015032:10015033:+_ENSMUSG00000027533_ENSMUST00000029046|mus_mus|mus_mus_mus_hu_True|38_98 (ssRNA)
RNA: GGGAGUUCUACAGUCCGACGAUCGUUUUUACCAUCACACGUAAUGAUACAAUCUGGCUUGGCCAUUGCGCCCAUUUUUCGCAAAGCUAUUCCCACUCCUAGCUCUUUCAUGUAUUCAUCAAAGCCUUUGCUGUCCACCAGGCGCAACAGAGGAUUGAGCAUCA
B8: 179620753_179621485_1811_3pUTR_ENSMUSG00000000305_ENSMUST00000000314|mouse|control|control (ssRNA)
RNA: GGGAGUUCUACAGUCCGACGAUCGAUCUGCCCAUUGGAUGUGUUGAUGUGCAGCCAGUUGGCGGGAUCAGACAGUUUGGAGUACCUCACGGCUUGCUGCAUGAACCGGUCAGGGUCCACUGCAGAAAAAGUGGUGAGUGCUGUCAACAGAGGAUUGAGCAUCA
B9: chr2:219093530:219093531:+_ENSG00000163466_ENST00000315717|hu_hu|FALSE|FALSE (ssRNA)
RNA: GGGAGUUCUACAGUCCGACGAUCCACCCUCUUUAAUAACUCAUCAGCACCAUGUGCCUGAAGUUCCUUGUAGAAUUUCAAAGAAAUACUGACCAUCACUUUUGUUUUGUCUCCAUUAGGAUUUGAAAUAUGAUAGAGGACCCCCAACAGAGGAUUGAGCAUCA
B10: chr1:58468927:58468928:-_ENSMUSG00000026034_ENSMUST00000148330|mus_mus|mus_mus_mus_hu_False|78_78 (ssRNA)
RNA: GGGAGUUCUACAGUCCGACGAUCAAUUACUGAAAAAGAUGUUCAUUACCUUAGCUAGGCCAUGUAUGAACCAAAUUACCCAAACAAAAUAAACAUGGCAAUAUAAAAAUGUUAAGAAUUUACAAAGCUGUACAAAAUAACUUACAACAGAGGAUUGAGCAUCA
B11: chr22:19452774:19452775:-_ENSG00000070010_ENST00000399523|hu_hu|hu_hu_hu_mus_False|48_98 (ssRNA)
RNA: GGGAGUUCUACAGUCCGACGAUCCUUCUCAUUGUAGUUGAUGGCAAUCACAUCUCCAGUCGUCAGACAGGCGAAGUUUCUCAAUGCGUUUUCUAAUACCGCUUUAGGGUUGGUAAUAUCCAGGAAGUCUGGGCUCUGAGGCUGCAACAGAGGAUUGAGCAUCA
B12: chr7:106494041:106494042:-_ENSMUSG00000070436_ENSMUST00000094154|mus_mus|motif|central (ssRNA)
RNA: GGGAGUUCUACAGUCCGACGAUCUUCUCGUUUUGAAAGCAACAAAGGCUCAUAUUUCCCUUCCCCCCAUCUUUGAAAAAACGGAAAAAGGGAGAAAAACAAAAGUUCAUGACUGUGAUGCCCAACAUAACAAUUCUAGGGCAGCAACAGAGGAUUGAGCAUCA
B13: 24909737_24909857_1513_CDS_ENSG00000107863_ENST00000396432|human|control|control (ssRNA)
RNA: GGGAGUUCUACAGUCCGACGAUCUCUGCUGCUUGAGAUUCCAUCAGAAUGUCCACUGUAAUUUCCAGACUUAAGUAAAAUUCCAGAAGGUUCCAGUGAUCUGGAGCCUGCAGGCUGAUGAAUUAGAUGAGUGGUGGGAAUUGACAACAGAGGAUUGAGCAUCA
B14: chr1:169100823:169100824:+_ENSG00000143153_ENST00000367816|hu_mus|FALSE|FALSE (ssRNA)
RNA: GGGAGUUCUACAGUCCGACGAUCGACAGUUUGUUCAAGACUAGUAGGUUUGUGUAUCUUUUUUUAACUUAUUAAAUGGCUAGUGGGAAAGAUUUGUGCUUGUGAUCAGCUCUUAAUUUCAAUUUUUACAUCAAAGCGUCCCUGCAACAGAGGAUUGAGCAUCA
B15: chr19:21355511:21355512:+_ENSMUSG00000024750_ENSMUST00000025659|mus_mus|motif|central (ssRNA)
RNA: GGGAGUUCUACAGUCCGACGAUCUUUGUAGCUUUCUUCCUGCUUCCAAAAGUCAUGUCGAAAUUAAGGUGAAGUUUGACGGUGGUAGUAGACUGCCAGUCCUUUUCUGGUGUACCAUUUUUUUUUUUUUAAGUACAGGCACAUCAACAGAGGAUUGAGCAUCA
B16: chr7:150710151:150710152:-_ENSMUSG00000059119_ENSMUST00000072727|mus_hu|motif|central (ssRNA)
RNA: GGGAGUUCUACAGUCCGACGAUCCACAGCCCGCGGGACUAUCCGCUCACGGAAAAAGUGUCCAAUUUCAAAAUCAGAGGCGGAUGUGAAUUCAGAAUCUUCAUCCAGUGAUUCUCCAUCCCCGGAUGCUUUCAAUGGAUUGAACAACAGAGGAUUGAGCAUCA
B17: chr11:102337468:102337469:-_ENSMUSG00000034621_ENSMUST00000143842|mus_mus|motif|central (ssRNA)
RNA: GGGAGUUCUACAGUCCGACGAUCAAGGAAAACUACCUCCAGGAUGGCAGAGGCGGCCAGAGCAUGGCUAGAUCUACAACCGGACGAGAAGCAGCACAAAAAUGUUAAUACUGUUUUAUUUAAAUAUUUACACGGGCUGAAAGCCAACAGAGGAUUGAGCAUCA
B18: chr8:104063288:104063289:+_ENSG00000155097_ENST00000518738|hu_hu|motif|central (ssRNA)
RNA: GGGAGUUCUACAGUCCGACGAUCUAUAUAAGUAACCAAGUCCACUCCAUUAGCCAACAGAUUCUCUUGAACUUUGUCUUUGCGGUCUUCCAAUACAUCAGCCAUGUAUUGAGCUACUUUCUUAACCACUCCUUCUACAAAUGCCAACAGAGGAUUGAGCAUCA
B19: chr6:114281168:114281169:-_ENSG00000196591_ENST00000368632|hu_hu|hu_hu_hu_mus_True|8_68 (ssRNA)
RNA: GGGAGUUCUACAGUCCGACGAUCUUCCAUUUUUCGGUAUAAACCAUAAUUUAGCAGCAAGUUAUGAGUCAUGCGGAUUCUAUGAGGCUUCAUGGGAUGACCCUGGCCAUAAUAAUAAUUGCCAAUAUCACAGAUUCAGUAGUACAACAGAGGAUUGAGCAUCA
B20: chr22:32879901:32879902:+_ENSG00000100225_ENST00000397426|hu_mus|hu_hu_hu_mus_False|8_48 (ssRNA)
RNA: GGGAGUUCUACAGUCCGACGAUCCUCUUCCAUACUCAUGGCAUCCUGAAUUGACUCAGCUUCAACAUUUUGACUAGGCCCUUCCAUACUGUCGUCAGUCCAGGCAUCAAAUGGGGUGGCCUGUCCUUGGAAUGAAUCAGUCCCCAACAGAGGAUUGAGCAUCA
B21: chr3:107766082:107766083:-_ENSG00000196776_ENST00000355354|hu_mus|FALSE|FALSE (ssRNA)
RNA: GGGAGUUCUACAGUCCGACGAUCCUUCCAGCUGUGAGUCGUGAAGACCUGGUGCUUAGACAACUGUAUUCUUCCAUUUCUGACUUCCAAGUUACAGUCCGUCACUUCCCUUCACCUAUUCCUAGGAGGUUGGAUAGUCCUCUGCAACAGAGGAUUGAGCAUCA
B22: chr1:100342015:100342016:+_ENSG00000162688_ENST00000361915|hu_mus|motif|central (ssRNA)
RNA: GGGAGUUCUACAGUCCGACGAUCGGCUUCCUCUGCGGAUAAGGCCAUUUCUCCAAAGGGGAAAGUAAAAUACCUGGUAACGGAAGGAUACUUCCUGGUGACAGGUCCUAGUUUAGGGCCAUGGCCUGCCAGUCGUUCAUAAAACAACAGAGGAUUGAGCAUCA

molecular target: T1, UNK ZnF1-3; test: nsRBNS (natural sequence RNA bind-n-seq); RBNS binding buffer (assumed for nsRBNS): 25 mM Tris pH 7.5, 150 mM KCl, 3 mM MgCl2, 0.01% Triton X-100, 500 ug/ml BSA, 20 U/ml SUPERase-In, 4 C; UNK is unkempt and MSI1 is Musashi-1; names of the RNAs are library labels; protein concentration not given here; high values mean tight binding

Point of comparison: B10, binding signal 1.24 enrichment R. Against it:
- B1 — lower, 0.778 enrichment R
- B2 — lower, 0.885 enrichment R
- B3 — lower, 0.678 enrichment R
- B4 — higher, 1.3 enrichment R
- B5 — lower, 0.365 enrichment R
- B6 — lower, 0.526 enrichment R
- B7 — lower, 0.755 enrichment R
- B8 — lower, 0.608 enrichment R
- B9 — higher, 1.46 enrichment R
- B11 — lower, 0.786 enrichment R
- B12 — lower, 1.22 enrichment R
- B13 — higher, 1.3 enrichment R
- B14 — lower, 1.14 enrichment R
- B15 — lower, 0.527 enrichment R
- B16 — lower, 0.87 enrichment R
- B17 — higher, 2.94 enrichment R
- B18 — lower, 1.03 enrichment R
- B19 — higher, 1.26 enrichment R
- B20 — lower, 0.95 enrichment R
- B21 — lower, 0.792 enrichment R
- B22 — lower, 0.704 enrichment R
